The list shows a part of the results. Interaction screen of human proteins with wild-type SARS-CoV-2 proteins by split-DHFR complementation in yeast, 1 µg/mL methotrexate. Value = fitness of the pair (three or more lineages) minus that of the viral protein without a human partner, on a scale set by negative (0) and fused positive (1) controls, mean of up to three cultures; higher = more likely to interact. Active = false discovery rate below 0.05 (one-sided t-test) in at least one culture. Nearly all pairs are not hits, and differences among them are mostly noise (correlation between cultures about 0.3); most hits were seen in one culture only. Human sequences are the Swiss-Prot entries looked up by gene name; the clone may be another isoform. NSP2 values were corrected by the authors for a growth advantage. Listed are human proteins with a hit and a random twelfth of the others.
Legend:
Test in all cases: yeast fitness gain over the viral ORF with no human partner (scaled fitness); higher = more likely to interact
SARS-CoV-2 E = biological target: SARS-CoV-2 E
Protocol: (§1)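 Split mouse DHFR complementation in pooled diploid yeast: human ORFeome clones carry one fragment and viral ORFs the other; barcoded lineages compete in 1 µg/mL methotrexate and fitness is read by barcode sequencing in up to three cultures.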

SARS-CoV-2 M = biological target: SARS-CoV-2 M
Protocol: as §1

SARS-CoV-2 NSP1 = biological target: SARS-CoV-2 NSP1
Protocol: as §1

SARS-CoV-2 NSP10 = biological target: SARS-CoV-2 NSP10
Protocol: as §1

SARS-CoV-2 NSP12 = biological target: SARS-CoV-2 NSP12
Protocol: as §1

SARS-CoV-2 NSP13 = biological target: SARS-CoV-2 NSP13
Protocol: as §1

SARS-CoV-2 NSP15 = biological target: SARS-CoV-2 NSP15
Protocol: as §1

SARS-CoV-2 NSP16 = biological target: SARS-CoV-2 NSP16
Protocol: as §1

SARS-CoV-2 NSP2 = biological target: SARS-CoV-2 NSP2
Protocol: as §1

SARS-CoV-2 NSP4 = biological target: SARS-CoV-2 NSP4
Protocol: as §1

SARS-CoV-2 NSP5 = biological target: SARS-CoV-2 NSP5
Protocol: as §1

SARS-CoV-2 NSP6 = biological target: SARS-CoV-2 NSP6
Protocol: as §1

SARS-CoV-2 NSP7 = biological target: SARS-CoV-2 NSP7
Protocol: as §1

SARS-CoV-2 NSP8 = biological target: SARS-CoV-2 NSP8
Protocol: as §1

SARS-CoV-2 NSP9 = biological target: SARS-CoV-2 NSP9
Protocol: as §1

SARS-CoV-2 ORF10 = biological target: SARS-CoV-2 ORF10
Protocol: as §1

SARS-CoV-2 ORF3B = biological target: SARS-CoV-2 ORF3B
Protocol: as §1

SARS-CoV-2 ORF6 = biological target: SARS-CoV-2 ORF6
Protocol: as §1

SARS-CoV-2 ORF7A = biological target: SARS-CoV-2 ORF7A
Protocol: as §1

SARS-CoV-2 ORF7B = biological target: SARS-CoV-2 ORF7B
Protocol: as §1

SARS-CoV-2 ORF8 = biological target: SARS-CoV-2 ORF8
Protocol: as §1

SARS-CoV-2 ORF9B = biological target: SARS-CoV-2 ORF9B
Protocol: as §1

[1] = biological target: SARS-CoV-2 ORF9Bwu (the 73-codon ORF)
Protocol: as §1

SARS-CoV-2 S = biological target: SARS-CoV-2 S
Protocol: as §1

SARS-CoV-2 N = biological target: SARS-CoV-2 N
Protocol: as §1

SARS-CoV-2 NSP14 = biological target: SARS-CoV-2 NSP14
Protocol: as §1

SARS-CoV-2 ORF3A = biological target: SARS-CoV-2 ORF3A
Protocol: as §1

Measured: yeast fitness gain

B1: ASTN2, O75129 (protein)
chain: MAAAGARLSPGPGSGLRGRPRLCFHPGPPPLLPLLLLFLLLLPPPPLLAGATAAASREPDSPCRLKTVTVSTLPALRESDIGWSGARAGAGAGTGAGAAAAAASPGSPGSAGTAAESRLLLFVRNELPGRIAVQDDLDNTELPFFTLEMSGTAADISLVHWRQQWLENGTLYFHVSMSSSGQLAQATAPTLQEPSEIVEEQMHILHISVMGGLIALLLLLLVFTVALYAQRRWQKRRRIPQKSASTEATHEIHYIPSVLLGPQARESFRSSRLQTHNSVIGVPIRETPILDDYDCEEDEEPPRRANHVSREDEFGSQVTHTLDSLGHPGEEKVDFEKKAAAEATQETVESLMQKFKESFRANTPIEIGQLQPPLRSTSAGKRKRRSKSRGGISFGRAKGTSGSEADDETQLTFYTEQYRSRRRSKGLLKSPVNKTALTLIAVSSCILAMVCGSQMSCPLTVKVTLHVPEHFIADGSSFVVSEGSYLDISDWLNPAKLSLYYQINATSPWVRDLCGQRTTDACEQLCDPETGECSCHEGYAPDPVHRHLCVRSDWGQSEGPWPYTTLERGYDLVTGEQAPEKILRSTFSLGQGLWLPVSKSFVVPPVELSINPLASCKTDVLVTEDPADVREEAMLSTYFETINDLLSSFGPVRDCSRNNGGCTRNFKCVSDRQVDSSGCVCPEELKPMKDGSGCYDHSKGIDCSDGFNGGCEQLCLQQTLPLPYDATSSTIFMFCGCVEEYKLAPDGKSCLMLSDVCEGPKCLKPDSKFNDTLFGEMLHGYNNRTQHVNQGQVFQMTFRENNFIKDFPQLADGLLVIPLPVEEQCRGVLSEPLPDLQLLTGDIRYDEAMGYPMVQQWRVRSNLYRVKLSTITLAAGFTNVLKILTKESSREELLSFIQHYGSHYIAEALYGSELTCIIHFPSKKVQQQLWLQYQKETTELGSKKELKSMPFITYLSGLLTAQMLSDDQLISGVEIRCEEKGRCPSTCHLCRRPGKEQLSPTPVLLEINRVVPLYTLIQDNGTKEAFKSALMSSYWCSGKGDVIDDWCRCDLSAFDANGLPNCSPLLQPVLRLSPTVEPSSTVVSLEWVDVQPAIGTKVSDYILQHKKVDEYTDTDLYTGEFLSFADDLLSGLGTSCVAAGRSHGEVPEVSIYSVIFKCLEPDGLYKFTLYAVDTRGRHSELSTVTLRTACPLVDDNKAEEIADKIYNLYNGYTSGKEQQMAYNTLMEVSASMLFRVQHHYNSHYEKFGDFVWRSEDELGPRKAHLILRRLERVSSHCSSLLRSAYIQSRVETVPYLFCRSEEVRPAGMVWYSILKDTKITCEEKMVSMARNTYGESKGR
inactive: SARS-CoV-2 E 0.018 | SARS-CoV-2 M -0.137 | SARS-CoV-2 NSP1 = 0.0209 | SARS-CoV-2 NSP10 = 0.0229 | SARS-CoV-2 NSP12 = 0.014 | SARS-CoV-2 NSP13 = -0.009 | SARS-CoV-2 NSP15 = -0.0104 | SARS-CoV-2 NSP16 = -0.0563 | SARS-CoV-2 NSP2 = -0.14 | SARS-CoV-2 NSP4 = -0.0279 | SARS-CoV-2 NSP5 = -0.0752 | SARS-CoV-2 NSP6 = -0.0171 | SARS-CoV-2 NSP7 = -0.0436 | SARS-CoV-2 NSP8 = -0.0316 | SARS-CoV-2 NSP9 = -0.131 | SARS-CoV-2 ORF10 = 0.0352 | SARS-CoV-2 ORF3B -0.0724 | SARS-CoV-2 ORF6 = -0.0133 | SARS-CoV-2 ORF7A 0.0454 | SARS-CoV-2 ORF7B -0.0367 | SARS-CoV-2 ORF8 = -0.0138 | SARS-CoV-2 ORF9B -0.00159 | [1] -0.131 | SARS-CoV-2 S -0.00946

B2: PRSS22, Q9GZN4 (protein)
chain: MVVSGAPPALGGGCLGTFTSLLLLASTAILNAARIPVPPACGKPQQLNRVVGGEDSTDSEWPWIVSIQKNGTHHCAGSLLTSRWVITAAHCFKDNLNKPYLFSVLLGAWQLGNPGSRSQKVGVAWVEPHPVYSWKEGACADIALVRLERSIQFSERVLPICLPDASIHLPPNTHCWISGWGSIQDGVPLPHPQTLQKLKVPIIDSEVCSHLYWRGAGQGPITEDMLCAGYLEGERDACLGDSGGPLMCQVDGAWLLAGIISWGEGCAERNRPGVYISLSAHRSWVEKIVQGVQLRGRAQGGGALRAPSQGSGAAARS
inactive: SARS-CoV-2 E 0.0243 | SARS-CoV-2 M 0.0337 | SARS-CoV-2 N -0.00996 | SARS-CoV-2 NSP1 = 0.0311 | SARS-CoV-2 NSP10 = -0.0173 | SARS-CoV-2 NSP12 = 0.11 | SARS-CoV-2 NSP13 = 0.00071 | SARS-CoV-2 NSP14 = -0.0173 | SARS-CoV-2 NSP15 = -0.0408 | SARS-CoV-2 NSP16 = 0.07 | SARS-CoV-2 NSP2 = -0.167 | SARS-CoV-2 NSP4 = 0.235 | SARS-CoV-2 NSP5 = 0.045 | SARS-CoV-2 NSP6 = 0.0593 | SARS-CoV-2 NSP7 = -0.0331 | SARS-CoV-2 NSP8 = -0.0431 | SARS-CoV-2 NSP9 = -0.0363 | SARS-CoV-2 ORF10 = 0.0392 | SARS-CoV-2 ORF3A 0.0573 | SARS-CoV-2 ORF3B 0.037 | SARS-CoV-2 ORF6 = 2.1e-05 | SARS-CoV-2 ORF7A -0.0348 | SARS-CoV-2 ORF7B -0.0906 | SARS-CoV-2 ORF8 = 0.0113 | SARS-CoV-2 ORF9B 0.0578 | [1] 0.0422 | SARS-CoV-2 S -0.0433

B3: PACRG, Q96M98 (protein)
chain: MVAEKETLSLNKCPDKMPKRTKLLAQQPLPVHQPHSLVSEGFTVKAMMKNSVVRGPPAAGAFKERPTKPTAFRKFYERGDFPIALEHDSKGNKIAWKVEIEKLDYHHYLPLFFDGLCEMTFPYEFFARQGIHDMLEHGGNKILPVLPQLIIPIKNALNLRNRQVICVTLKVLQHLVVSAEMVGKALVPYYRQILPVLNIFKNMNGSYSLPRLECSGAIMARCNLDHLGSSDPPTSASQVAEIIVNSGDGIDYSQQKRENIGDLIQETLEAFERYGGENAFINIKYVVPTYESCLLN
inactive: SARS-CoV-2 E 0.0465 | SARS-CoV-2 M -0.0294 | SARS-CoV-2 N 0.0609 | SARS-CoV-2 NSP1 = -0.0231 | SARS-CoV-2 NSP10 = -0.0833 | SARS-CoV-2 NSP12 = 0.00191 | SARS-CoV-2 NSP13 = -0.0105 | SARS-CoV-2 NSP14 = -0.02 | SARS-CoV-2 NSP15 = 0.00554 | SARS-CoV-2 NSP16 = 0.0152 | SARS-CoV-2 NSP2 = -0.141 | SARS-CoV-2 NSP4 = 0.0481 | SARS-CoV-2 NSP5 = -0.00846 | SARS-CoV-2 NSP6 = -0.00982 | SARS-CoV-2 NSP7 = -0.0758 | SARS-CoV-2 NSP8 = 0.0208 | SARS-CoV-2 NSP9 = -0.0239 | SARS-CoV-2 ORF10 = -0.0244 | SARS-CoV-2 ORF3A 0.161 | SARS-CoV-2 ORF3B -0.0159 | SARS-CoV-2 ORF6 = 0.0463 | SARS-CoV-2 ORF7A -0.0865 | SARS-CoV-2 ORF7B -0.0146 | SARS-CoV-2 ORF8 = -0.0792 | SARS-CoV-2 ORF9B -0.0485 | [1] 0.0537 | SARS-CoV-2 S -0.00997

B4: ZNF597, Q96LX8 (protein)
chain: MASMPPTPEAQGPILFEDLAVYFSQEECVTLHPAQRSLSKDGTKESLEDAALMGEEGKPEINQQLSLESMELDELALEKYPIAAPLVPYPEKSSEDGVGNPEAKILSGTPTYKRRVISLLVTIENHTPLVELSEYLGTNTLSEILDSPWEGAKNVYKCPECDQNFSDHSYLVLHQKIHSGEKKHKCGDCGKIFNHRANLRTHRRIHTGEKPYKCAKCSASFRQHSHLSRHMNSHVKEKPYTCSICGRGFMWLPGLAQHQKSHSAENTYESTNCDKHFNEKPNLALPEETFVSGPQYQHTKCMKSFRQSLYPALSEKSHDEDSERCSDDGDNFFSFSKFKPLQCPDCDMTFPCFSELISHQNIHTEERPHKCKTCEESFALDSELACHQKSHMLAEPFKCTVCGKTFKSNLHLITHKRTHIKNTT
inactive: SARS-CoV-2 E -0.0467 | SARS-CoV-2 M -0.0655 | SARS-CoV-2 N -0.387 | SARS-CoV-2 NSP1 = -0.114 | SARS-CoV-2 NSP10 = -0.0151 | SARS-CoV-2 NSP12 = -0.00974 | SARS-CoV-2 NSP13 = 0.014 | SARS-CoV-2 NSP15 = -0.0827 | SARS-CoV-2 NSP16 = 0.0498 | SARS-CoV-2 NSP2 = -0.0837 | SARS-CoV-2 NSP5 = 0.089 | SARS-CoV-2 NSP6 = 0.0209 | SARS-CoV-2 NSP7 = 0.046 | SARS-CoV-2 NSP8 = -0.101 | SARS-CoV-2 ORF10 = -0.0408 | SARS-CoV-2 ORF3A -0.103 | SARS-CoV-2 ORF3B -0.0273 | SARS-CoV-2 ORF6 = 0.00296 | SARS-CoV-2 ORF7A -0.0973 | SARS-CoV-2 ORF7B -0.0455 | SARS-CoV-2 ORF8 = -0.0307 | SARS-CoV-2 ORF9B 0.0414 | [1] 0.0203 | SARS-CoV-2 S 0.0496

Source: the supplement of paper PMC11741623
